The values that follow come from PubChem BioAssay AID1656 (Sanford-Burnham Center for Chemical Genomics, 2009).

SMILES strings stand for the structures. Some of the results follow. These are further read-outs of the screen, such as a control signal, another cell line or another target. No call is given for them. Most of these compounds were active or inconclusive in the main read-out, so they are no random draw.

A short description of the test: oleate-induced lipid droplet accumulation in AML12 cells – imaging, high-throughput imaging, BODIPY stain, primary screen (AID 1656).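 Note: cells counted across two imaged fields per well.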 Particulars: AML12 mouse hepatocytes, oleate lipid droplets, measured here: cell count, cytotoxicity flag, at 6.5 µM. An outline of the steps:
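Assay system: AML12 hepatocytes (mouse); Probe or stimulus: oleic acid at 100 µM to induce lipid droplet formation; Dosing: compound at 6.5 µM only; Schedule: compound with oleate, overnight; Detection: fluorescence imaging, 20x objective, two fields per well; Measure: % inhibition of lipid droplet signal.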
Compound `Nc1cc(Cl)c2nonc2c1[N+](=O)[O-]` displayed a cell count of 562 cells.
Under `CCC1(OC(=O)CN)C(=O)OCc2c1cc1n(c2=O)Cc2cc3ccccc3nc2-1` (centres undefined) stands 251 cells.
In the case of `CC(C)[C@]12O[C@H]1[C@@H]1O[C@]13[C@]1(O[C@H]1C[C@H]1C4=C(CC[C@@]13C)C(=O)OC4)[C@@H]2O`, the cell count came out at 341 cells.
For `O=c1[nH]c(=O)n(-c2ccccc2)c(O)c1/C=C1/C(c2ccccc2)=Nc2ccccc21`, the cell count came out at 272 cells.
Next, `COc1cccc(OC)c1C1=NCC(=O)Nc2c1oc1ccc(Br)cc21`: 256 cells; `COC(=O)C1CN(C#N)N(c2ccc(Cl)cc2)C12c1ccccc1-c1ccccc12` (centres undefined): 586 cells.
`NC(=S)c1cn(C2OC(CO)C(O)C2O)c2ncnc(N)c12` (centres undefined): the cell count was determined as 254 cells.
In the case of `CC(=O)OC(C)(C)/C=C/C(=O)C(C)(O)C1[C@H](O)C[C@@]2(C)C3CC=C4C(CC[C@@H](O)C4(C)C)[C@]3(CO)C(=O)C[C@]12C` (some centres undefined), the cell count stood at 157 cells.
In turn, `C#CCOc1cc(C2C3=C(COC3=O)Nc3cc4c(cc32)OCO4)ccc1OC` (centres undefined) came in with a cell count of 139 cells.
In turn, `Cc1cccc(-n2c(/C=C/c3ccc([N+](=O)[O-])o3)nc3ccccc3c2=O)c1` registered a cell count of 138 cells.
`Cc1nc2c(=O)n(C)c(=O)nc-2n(C)n1` had a cell count of 234 cells.
Next, `C=C1C(=O)O[C@@H]2C[C@@H](C)[C@@H]3C=CC(=O)[C@@]3(C)[C@@H](OC(=O)CC(=O)O[C@H]3[C@@H]4C(=C)C(=O)O[C@@H]4C[C@@H](C)[C@@H]4C=CC(=O)[C@]43C)[C@H]12`: 48 cells; `CC1CCC/C=C/C2CC(O)CC2C(O)/C=C/C(=O)O1` (centres undefined): 361 cells; `CC1(C)CN=C(Nc2ccc(F)c(Cl)c2)S1`: 631 cells.
With `NC(=O)c1cn(C2OC(CO)C(O)C2O)c2ncnc(N)c12` (centres undefined), the cell count was 202 cells.
`CC1=CC(=C2C(=O)NC(=S)NC2=O)C=C(C(F)(F)F)N1Cc1ccccc1` registered a cell count of 155 cells.
Turning to `CCc1ccc(-n2c(O)c(C(C)=O)c(=O)[nH]c2=O)cc1` (tested in a mixture with another compound), the cell count was determined as 719 cells.
Under `C=C(C=O)CC1CC(O)[C@]2(C)OC3CC4OC5C[C@]6(C)O[C@]7(C)CCC8OC9C[C@]%10(C)OC%11C(C)=CC(=O)OC%11CC%10OC9C[C@@H](C)C8OC7CC6O[C@]5(C)CC5OC5C4OC3CC2O1` (some centres undefined) stands 139 cells.
Under `CC1(C)C[C@H]2C=C(C=O)[C@]3(C=O)C[C@]3(C)[C@H]2C1` stands 221 cells.
Under `CN1CCN(c2ccc([N+](=O)[O-])c(NCc3ccco3)c2)CC1` stands 109 cells; under `CN1C2CCC1/C(=C/c1ccccn1)C(=O)/C2=C\c1ccccn1`, 271 cells.
For `CC(=O)OC(C)(C)/C=C/C(=O)[C@](C)(O)[C@H]1[C@H](O)C[C@@]2(C)[C@@H]3CC=C4[C@H](C[C@H](O)C(=O)C4(C)C)[C@]3(C)C(=O)C[C@]12C`, the cell count was 573 cells.
As to `C[C@H]1CCC/C=C/C2C[C@H](O)CC2[C@H](O)/C=C/C(=O)O1` (some centres undefined), the cell count stood at 248 cells.
In the case of `CC(C)OCCCNC(=O)c1c(N)n(CC2CCCO2)c2nc3ccccc3nc12` (centres undefined), the cell count is 650 cells.
